# Some of the results follow.
# B1: AAL (Agrocybe aegerita), Q6WY08 (protein)
# chain: MQGVNIYNISAGTSVDLAAPVTTGDIVTFFSSALNLNAGAGNPNNTTLNLFAENGAYLLHIAFRLQENVIIFNSRQPDGPWLVEQRVSDVANQFAGIDGKAMVTVFDHGDKYQVVINEKTVIQYTKQISGLTLSLSYNATEETSIFSTVVEAVTYTGLALEHHHHHH
# Assays:
# Assay in all cases: glycan array binding signal (z-score within array); higher = stronger binding
# Conditions in all cases: glycan notation: IUPAC condensed, linker removed
# [1] = target: Gal(b1-4)GlcNAc(b1-3)[Gal(b1-4)GlcNAc(b1-6)]Gal(b1-4)GlcNAc
# Summary of the method: (§1)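 Glycan array data came from 3228 arrays in the Consortium for Functional Glycomics database, and only arrays with an available protein sequence were kept. Glycan names were put into IUPAC-condensed notation, and columns mapping to the same glycan were averaged. The binding signal is a within-array Z-score, averaged across arrays of one protein sequence run at different concentrations or buffers and across linkers. A negative Z-score can be read as non-binding.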
# [2] = target: Gal(b1-4)GlcNAc(b1-3)[Gal(b1-4)GlcNAc(b1-6)]GalNAc
# Summary of the method: as §1
# [3] = target: Gal(b1-4)GlcNAc(b1-3)[GlcNAc(b1-6)]Gal(b1-4)GlcNAc
# Summary of the method: as §1
# [4] = target: Gal(b1-4)GlcNAc(b1-6)Gal(b1-4)GlcNAc
# Summary of the method: as §1
# [5] = target: Gal(b1-4)GlcNAc(b1-6)GalNAc
# Summary of the method: as §1
# [6] = target: Gal(b1-4)GlcNAc(b1-6)[Gal(b1-3)]GalNAc
# Summary of the method: as §1
# [7] = target: Gal(b1-4)GlcNAc(b1-6)[Gal(b1-4)GlcNAc(b1-3)]GalNAc
# Summary of the method: as §1
# Gal(b1-4)GlcNAc6P = target: Gal(b1-4)GlcNAc6P
# Summary of the method: as §1
# Gal(b1-6)Gal = target: Gal(b1-6)Gal
# Summary of the method: as §1
# Gal3S(b1-3)GalNAc = target: Gal3S(b1-3)GalNAc
# Summary of the method: as §1
# Gal3S(b1-3)GlcNAc = target: Gal3S(b1-3)GlcNAc
# Summary of the method: as §1
# [8] = target: Gal3S(b1-3)[Fuc(a1-4)]GlcNAc
# Summary of the method: as §1
# Gal3S(b1-4)Glc = target: Gal3S(b1-4)Glc
# Summary of the method: as §1
# Gal3S(b1-4)Glc6S = target: Gal3S(b1-4)Glc6S
# Summary of the method: as §1
# Gal3S(b1-4)GlcNAc = target: Gal3S(b1-4)GlcNAc
# Summary of the method: as §1
# Gal3S(b1-4)GlcNAc6S = target: Gal3S(b1-4)GlcNAc6S
# Summary of the method: as §1
# [9] = target: Gal3S(b1-4)[Fuc(a1-3)]Glc
# Summary of the method: as §1
# [10] = target: Gal3S(b1-4)[Fuc(a1-3)]Glc6S
# Summary of the method: as §1
# [11] = target: Gal3S(b1-4)[Fuc(a1-3)]GlcNAc
# Summary of the method: as §1
# [12] = target: Gal3S(b1-4)[Fuc(a1-3)]GlcNAc6S
# Summary of the method: as §1
# Gal3S4S(b1-4)GlcNAc = target: Gal3S4S(b1-4)GlcNAc
# Summary of the method: as §1
# Gal3S6S(b1-4)GlcNAc = target: Gal3S6S(b1-4)GlcNAc
# Summary of the method: as §1
# Gal3S6S(b1-4)GlcNAc6S = target: Gal3S6S(b1-4)GlcNAc6S
# Summary of the method: as §1
# Gal4S(b1-4)GlcNAc = target: Gal4S(b1-4)GlcNAc
# Summary of the method: as §1
# Gal4S6S(b1-4)GlcNAc = target: Gal4S6S(b1-4)GlcNAc
# Summary of the method: as §1
# Gal6P(b1-4)GlcNAc = target: Gal6P(b1-4)GlcNAc
# Summary of the method: as §1
# Gal6S(b1-3)GlcNAc = target: Gal6S(b1-3)GlcNAc
# Summary of the method: as §1
# Gal6S(b1-3)GlcNAc6S = target: Gal6S(b1-3)GlcNAc6S
# Summary of the method: as §1
# Gal6S(b1-4)Glc = target: Gal6S(b1-4)Glc
# Summary of the method: as §1
# Gal6S(b1-4)Glc6S = target: Gal6S(b1-4)Glc6S
# Summary of the method: as §1
# Gal6S(b1-4)GlcNAc = target: Gal6S(b1-4)GlcNAc
# Summary of the method: as §1
# Gal6S(b1-4)GlcNAc6S = target: Gal6S(b1-4)GlcNAc6S
# Summary of the method: as §1
# GalNAc(a1-3)Gal = target: GalNAc(a1-3)Gal
# Summary of the method: as §1
# GalNAc(a1-3)GalNAc = target: GalNAc(a1-3)GalNAc
# Summary of the method: as §1
# [13] = target: GalNAc(a1-3)GalNAc(a1-3)Gal(a1-4)Gal(b1-4)GlcNAc
# Summary of the method: as §1
# [14] = target: GalNAc(a1-3)GalNAc(b1-3)Gal(a1-4)Gal(b1-4)Glc
# Summary of the method: as §1
# [15] = target: GalNAc(a1-3)GalNAc(b1-3)Gal(a1-4)Gal(b1-4)GlcNAc
# Summary of the method: as §1
# GalNAc(b1-3)Gal = target: GalNAc(b1-3)Gal
# Summary of the method: as §1
# [16] = target: GalNAc(b1-3)Gal(a1-4)Gal(b1-4)GlcNAc
# Summary of the method: as §1
# [17] = target: GalNAc(b1-3)Gal(a1-4)Gal(b1-4)GlcNAc(b1-3)Gal(b1-4)Glc
# Summary of the method: as §1
# [18] = target: GalNAc(b1-3)Gal(a1-6)Gal(b1-4)Glc
# Summary of the method: as §1
# GalNAc(b1-3)GalNAc = target: GalNAc(b1-3)GalNAc
# Summary of the method: as §1
# GalNAc(b1-3)GlcNAc = target: GalNAc(b1-3)GlcNAc
# Summary of the method: as §1
# GalNAc(b1-4)Gal(b1-4)Glc = target: GalNAc(b1-4)Gal(b1-4)Glc
# Summary of the method: as §1
# GalNAc(b1-4)GlcNAc = target: GalNAc(b1-4)GlcNAc
# Summary of the method: as §1
binder,measurement,setting,value
B1,glycan array binding signal (z-score),[1],-0.14
same,glycan array binding signal (z-score),[2],-0.153
same,glycan array binding signal (z-score),[3],-0.137
same,glycan array binding signal (z-score),[4],-0.143
same,glycan array binding signal (z-score),[5],-0.113
same,glycan array binding signal (z-score),[6],-0.13
same,glycan array binding signal (z-score),[7],-0.124
same,glycan array binding signal (z-score),Gal(b1-4)GlcNAc6P,-0.163
same,glycan array binding signal (z-score),Gal(b1-6)Gal,-0.137
same,glycan array binding signal (z-score),Gal3S(b1-3)GalNAc,9.4
same,glycan array binding signal (z-score),Gal3S(b1-3)GlcNAc,0.178
same,glycan array binding signal (z-score),[8],-0.147
same,glycan array binding signal (z-score),Gal3S(b1-4)Glc,0.095
same,glycan array binding signal (z-score),Gal3S(b1-4)Glc6S,1.42
same,glycan array binding signal (z-score),Gal3S(b1-4)GlcNAc,1.07
same,glycan array binding signal (z-score),Gal3S(b1-4)GlcNAc6S,3.66
same,glycan array binding signal (z-score),[9],-0.154
same,glycan array binding signal (z-score),[10],-0.124
same,glycan array binding signal (z-score),[11],-0.124
same,glycan array binding signal (z-score),[12],0.878
same,glycan array binding signal (z-score),Gal3S4S(b1-4)GlcNAc,-0.149
same,glycan array binding signal (z-score),Gal3S6S(b1-4)GlcNAc,-0.14
same,glycan array binding signal (z-score),Gal3S6S(b1-4)GlcNAc6S,-0.139
same,glycan array binding signal (z-score),Gal4S(b1-4)GlcNAc,-0.15
same,glycan array binding signal (z-score),Gal4S6S(b1-4)GlcNAc,-0.149
same,glycan array binding signal (z-score),Gal6P(b1-4)GlcNAc,-0.127
same,glycan array binding signal (z-score),Gal6S(b1-3)GlcNAc,-0.136
same,glycan array binding signal (z-score),Gal6S(b1-3)GlcNAc6S,-0.129
same,glycan array binding signal (z-score),Gal6S(b1-4)Glc,-0.141
same,glycan array binding signal (z-score),Gal6S(b1-4)Glc6S,-0.096
same,glycan array binding signal (z-score),Gal6S(b1-4)GlcNAc,-0.148
same,glycan array binding signal (z-score),Gal6S(b1-4)GlcNAc6S,-0.163
same,glycan array binding signal (z-score),GalNAc(a1-3)Gal,-0.139
same,glycan array binding signal (z-score),GalNAc(a1-3)GalNAc,-0.145
same,glycan array binding signal (z-score),[13],-0.158
same,glycan array binding signal (z-score),[14],-0.136
same,glycan array binding signal (z-score),[15],-0.137
same,glycan array binding signal (z-score),GalNAc(b1-3)Gal,-0.152
same,glycan array binding signal (z-score),[16],-0.142
same,glycan array binding signal (z-score),[17],-0.153
same,glycan array binding signal (z-score),[18],-0.133
same,glycan array binding signal (z-score),GalNAc(b1-3)GalNAc,-0.156
same,glycan array binding signal (z-score),GalNAc(b1-3)GlcNAc,-0.143
same,glycan array binding signal (z-score),GalNAc(b1-4)Gal(b1-4)Glc,-0.085
same,glycan array binding signal (z-score),GalNAc(b1-4)GlcNAc,-0.136

# From the supplement of paper PMC8728848
